Measured values from paper PMC8396186.
Residue numbers refer to the chain shown, from its start. Results are given in words; binding and its absence hold for the method and conditions named. For some assays here: In cells and extracts the contact can be indirect. Some binding calls cover weakened binding; strength is not graded here. Tags and fused reporters may be left off the sequences shown.

Sequences of proteins named here, by UniProt entry; tags and fusion partners are left off.
UniProt Q92905: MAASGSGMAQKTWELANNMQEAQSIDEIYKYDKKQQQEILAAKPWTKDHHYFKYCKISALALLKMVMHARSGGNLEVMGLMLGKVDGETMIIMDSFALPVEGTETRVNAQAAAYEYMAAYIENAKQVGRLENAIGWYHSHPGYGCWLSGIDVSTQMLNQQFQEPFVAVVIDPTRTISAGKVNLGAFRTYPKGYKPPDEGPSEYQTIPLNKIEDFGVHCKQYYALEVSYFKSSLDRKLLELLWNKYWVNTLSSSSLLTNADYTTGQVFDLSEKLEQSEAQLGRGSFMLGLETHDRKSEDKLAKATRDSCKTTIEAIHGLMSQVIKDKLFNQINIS

Columns and labels:
[1] = biological target: T1, FLAG-SCP3 in CaSki-SCP3 cells (human) (UniProt Q8IZU3); assay: co-IP; CaSki-SCP3 cells lysed in NP40 lysis buffer; immunoprecipitation with anti-FLAG or rabbit IgG 16 h, Western blot for endogenous JAB1
T1 sequence: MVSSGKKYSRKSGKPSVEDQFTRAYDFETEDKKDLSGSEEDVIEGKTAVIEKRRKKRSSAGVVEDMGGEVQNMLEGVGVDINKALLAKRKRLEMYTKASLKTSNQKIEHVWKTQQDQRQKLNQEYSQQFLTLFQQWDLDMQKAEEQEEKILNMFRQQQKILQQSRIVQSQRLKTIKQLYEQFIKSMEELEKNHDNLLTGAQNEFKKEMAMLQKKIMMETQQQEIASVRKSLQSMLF

[2] = biological target: T2, GFP-SCP3 D139G (human) (UniProt Q8IZU3); assay: co-IP; HEK293 cells co-transfected with GFP-SCP3 constructs and FLAG-JAB1, 48 h; NP40 lysis buffer (50 mM Tris-HCl pH 8.0, 5 mM EDTA, 150 mM NaCl, 1% NP40); immunoprecipitation with GFP antibody 16 h, Western blot with GFP and FLAG antibodies
T2 sequence: T1 sequence with D139G

[3] = biological target: T3, GFP-SCP3 D116G (human) (UniProt Q8IZU3); assay: as above
T3 sequence: T1 sequence with D116G

[4] = biological target: T4, GFP-SCP3 (pEGFP-SCP3), wild type (human) (UniProt Q8IZU3); assay: as above
T4 sequence: T1 sequence

[5] = biological target: T5, Synaptonemal complex protein 3 (SCP3), full-length human, GAL4 DNA-binding domain fusion (pBD-GAL4-SCP3 bait) (human) (UniProt Q8IZU3); assay: two-hybrid; bait pBD-GAL4-SCP3 in yeast AH109, prey from a HeLa cell library and then full-length pAD-JAB1; growth over 3 days on medium lacking Leu, Trp, His and Ade
T5 sequence: T1 sequence

“Endogenous JAB1 of CaSki-SCP3 cells (from UniProt Q92905 1-334)” was tested, and the binding [1] was “binds”.
With “FLAG-JAB1 (p3xFLAG CMV7.1-JAB1) (from UniProt Q92905 1-334)” the binding [2] was “no binding”, the binding [3] was “binds” and the binding [4] was “binds”.
“Jun activation domain-binding protein 1 (JAB1), full-length human, GAL4 activation domain fusion (pAD-JAB1 prey) (from UniProt Q92905 1-334)” was tested, and the binding [5] was “binds”.
